Assay results published in the supplement of paper PMC10126150.
Sequences with one replicate were seen in a single cluster, so their values are uncertain.

Test system: ATP
Assay: switch fluorescence ratio, 500 uM ATP over buffer (Cy3 cluster intensity, sum of 5 cycles each) (fold (ratio)); higher = stronger signal-on switching upon ATP binding; sequences stand for … in TCGTCGGCAGCGTCAGATGTGTATAAGAGACAGTTTTTTTTTTTTTTTTTTTTTTTTT…TC
Conditions: aptamer strand: ATP DNA aptamer (quencher-CACCTGGGGGAGTATTGCGGAGGAAGG + anchor), 100 nM annealed; ATP concentration: 500 uM; one replicate
Method in brief: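 Switching-strand clusters labelled with Cy3 on a modified Illumina MiSeq flow-cell were annealed to 100 nM quencher-labelled ATP aptamer, imaged in selection buffer, and re-imaged after 15 min with 500 uM ATP at 22 °C. This was done over five cycles with NaOH stripping and re-annealing in between. The fluorescence ratio is summed target-cycle over summed buffer-cycle Cy3 intensity per cluster, averaged per switch-domain sequence, excluding clusters outside 100-1000 RFU.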
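Further: ATP exposure 15 min at 22 °C before imaging.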

Sequence	switch fluorescence ratio
AGGTTGCCGT	1.03
ATTTGGCCAA	1.01
TTACCAGGGT	1.07
TAAGTTGATT	0.988
AAATTGCATC	0.983
CTTTTATAAA	0.991
TTTGTATTCT	0.943
GGGCCACTTA	1.12
TGGATGAAAG	0.98
GCCGCACGGC	1.05
AACAATGGTT	0.997
TAGTCCGATC	1.06
GTAATATACA	1.01
GCAGGCGGAC	1.04
TTTCGGATAG	0.967
CGCTCATTGG	1.06
TAATCCCTTG	0.988
CACGGTAGC	1.1
GGCCTCGAAT	0.996
TGGTGACTTT	0.982
CAGGTTGGGA	1.01
CCCTGCACTT	1.42
AAATGGTGAG	0.972
TAGACGGGTC	0.987
CAGACATACC	1.37

Sequence	switch fluorescence ratio
TGCAGAAGTA	0.982
TACTTCCCAT	1.11
TAAAGGGCTG	1.05
AACGACGATA	1.14
AAGTACAGT	1.32
TGTGGCGTAC	1.04
GTAGACAGCA	1.01
ATTATTTGTG	0.976
ACATTCACAT	1.19
GCGCGGCAGA	0.989
CAAATGAAT	1
TGGAACGGGC	0.99
GATTTTTAAT	0.999
AAGACAAAGG	0.984
TCTTCGGCGT	0.973
AGGGTTAAAC	0.994
ACAGAAGGCA	1.04
AGGATAGATT	0.989
ACGCGATCAT	0.967
TTTTACCCTG	1.01
CTGTGCTTCT	1.01
TGTCTGGATA	0.986
GGGTACGTAG	1.03
TGTGGTACGA	1.04
TCCTAGTAAG	1.03

Sequence	switch fluorescence ratio
TTAAAGACGC	1.03
GAAGCGGTAT	1.43
TTGAGTGAC	0.992
TTGGTAGCA	0.927
GATAAAGGAT	0.95
TACTTGGGA	0.993
GGAGTGTGCA	1.05
GTTCAAATGG	0.99
GGGCGGATCG	1.03
GCCTCGGGTC	0.988
GTGCCGGGAT	2.75
AACGGTTGTC	1.07
TAACTGGTAT	1.01
ATACCGATGA	1.04
TCGGTTGTGG	0.994
TGTTATTTGG	0.952
GGACTGCGAA	1.04
GAAAGTCCAG	0.998
TTGTCATATA	1.04
TCATCGGTGG	1.03
ACTCATCCGA	1.16
TTCCCAGTCC	1.04
TCTTATGACT	1
TTATGTCACT	0.992
GATGTTTCCG	1.01

Sequence	switch fluorescence ratio
CTACGGGATG	1.13
AGTTATGAGG	0.984
AATGGTGGAG	1.03
CGCTAATTCT	1.53
CATTTTACAA	0.991
TACTCTGTCG	1.13
GCATTCAGCA	0.988
AGATGCTGCC	0.983
AACTTCTAGC	1.02
AGCATTGAGT	1.01
GGTTGATCGG	1.05
AAAATTAAGG	0.962
GTGGAATGAT	1.03
GATCCAAGAA	1.04
GACCTCACTT	1.16
TAGGGAGTGC	1
AATAAGGTGG	1.05
TCGAGATAT	1.04
TGCTAATGCT	1
AAAGACGGGT	0.978
CTCCGTTGG	1.66
CATGTGGCAA	1.53
TAGCTGTGCG	0.978
TAAACCTTCT	3.4
TCCAATCCGA	1.01

Sequence	switch fluorescence ratio
TGGAAAATGG	0.95
TAGAGGTTTC	0.931
CCGGAGGACC	1.16
TGAGCTTGTT	1.14
ATACGTTCAA	1.13
TCGAAGAGGT	0.952
ACTTCGCGTC	1.32
ACTACAATTA	1.07
TTCGTAATTT	1.08
TGGCTGCATT	1.08
GATAGCTCAA	0.97
GGATGTTGCT	0.956
TACGTACCCC	1.39
AGCGTCGAGG	1.01
GCTGACACGA	1.05
CGGTTCCAGC	1.06
TCTTCTTTTT	1.03
AGAGGACTAA	1.03
GCTGGTCCG	0.938
AGCCTTATGT	0.996
ATTACGAGTT	0.983
AGCGGTTGA	1.05
CTAATAGATG	1.03
AGATAATTTC	0.989
TCCCAGGTAG	2.75

Sequence	switch fluorescence ratio
CATAAAAAGT	1.02
GAGTTACAAG	1.08
TGAAAATCGT	0.995
TGTCAGTATG	1
GCAGCCTTGG	0.971
TGCTTGTTGA	1
CGTCGAGTC	1.02
AATACGCGTT	0.98
ATCCGGATGT	0.967
CCAGGATTGC	1.09
ACTCAGTCTA	1.03
TCAGATATTT	0.912
TGCATGAACG	1.02
ATAGCGTTGG	0.985
TGACCTCAGT	1.02
CTTCTAGGTA	1.03
CGCGGGTCTG	1.01
ATAGGCCGAG	0.955
CTGATTAAGC	0.997
TTATAGTGGA	0.999
GCCTACCTGT	1.05
GAACGTAGCT	1.07
TTCGGAGGCG	0.972
TTGGATTGTA	1.07
ATATCATAGC	1

Sequence	switch fluorescence ratio
GTAAGTAAAC	0.971
TGCTTGAAGC	0.99
TCGAACGTCT	1.17
GATTCTCTGA	0.991
CTTTTGACAT	0.952
AAGGTTGAAT	1.02
TTGAAGCCCC	1.19
AAGCAGACCG	0.974
TCGAGGGATT	0.987
GATAGGTTGC	0.976
GGAAGCTCTG	0.994
CATCGGGCCT	1.04
GAACTTTCCT	2.08
AGGAGGACTC	0.968
CTGCATAGTC	1.94
GGAGTACGAA	0.993
CGTAATAGG	1.18
AGTCATATGG	0.987
GTTACCAAAT	0.993
TGAGGAGCC	0.929
TTAAACATT	0.982
TGCGTTTTCT	0.957
TTGGCTGAGC	1.05
GGATATGC	1.15
CAACTGAGCG	1.05

Sequence	switch fluorescence ratio
GCCGATTCGT	1.01
AGGGTGGATT	0.967
GCGTCAATTT	2.09
CATGACACTA	1.09
GGAACTCATC	1.06
GTAGTATTTG	0.989
TCCCAAACGT	1.04
TCTTTGCGGT	0.999
TATAGTTAGC	0.972
TCACCGACCT	1.36
GCTGCAGTTG	1.06
CAAGTTGGGA	0.94
CCGTCCTATA	1.32
ATCCAGATCG	1.04
TCATTCTTCG	1.01
CCCGCACTGT	3.52
CGAGGCGGGA	1.1
CTGGAAATAT	1
TACTGAGTAA	1.01
TGCCATTCGC	0.955
TATGTTGCGG	1.01
GGTACAGCAT	1.01
GCGAGGGCGG	0.971
CCCGCATTTT	3.04
TGGTGAGTCC	0.965
